Test results taken from the supplement of paper PMC10126150.
Sequences with one replicate were seen in a single cluster, so their values are uncertain.

Tested on: ATP
Test: switch fluorescence ratio, 500 uM ATP over buffer (Cy3 cluster intensity, sum of 5 cycles each) (fold (ratio)); higher = stronger signal-on switching upon ATP binding; sequences stand for … in TCGTCGGCAGCGTCAGATGTGTATAAGAGACAGTTTTTTTTTTTTTTTTTTTTTTTTT…TC
Conditions: aptamer strand: ATP DNA aptamer (quencher-CACCTGGGGGAGTATTGCGGAGGAAGG + anchor), 100 nM annealed; ATP concentration: 500 uM; one replicate
Summary of the method: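 Values give the fluorescence ratio for each switch-domain sequence, averaged from per-cluster ratios of summed target-cycle to summed buffer-cycle Cy3 intensity. The Cy3-labelled switching-strand clusters sat on a modified Illumina MiSeq flow-cell, were annealed to 100 nM quencher-labelled ATP aptamer, and were imaged in selection buffer, then after 15 min with 500 uM ATP at 22 °C. Five cycles ran with NaOH stripping and re-annealing between them, and clusters outside 100-1000 RFU were excluded.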
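Note: ATP exposure 15 min at 22 °C before imaging.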

| Sequence | switch fluorescence ratio |
| --- | --- |
| ACGGCTGTTT | 1.01 |
| CTTATGGCAT | 1.01 |
| AAACTCCATA | 1.07 |
| CCCCGTGTAG | 1.37 |
| CTATTGAGAA | 1.02 |
| TTTTTGTG | 0.986 |
| TATAAGCTAA | 1.03 |
| TGTGAAACAT | 1.03 |
| AGCAGGCTAG | 1.01 |
| TACTTGGTAC | 1.03 |
| CGGAATGTTC | 1.06 |
| CCGCGAAGAA | 3.84 |
| CATTTTTGG | 0.969 |
| GGTGTGTTGA | 1.04 |
| CTTTGATTCC | 1.05 |
| ACGACGATAA | 2.54 |
| TTGCGGTACG | 1.05 |
| ATGTTCTTCC | 1.74 |
| TGAGCGGGGA | 1.02 |
| CCGGACTTAA | 1.09 |
| ACACGCTGAA | 1.07 |
| AAAAGTAACG | 1.02 |
| GCTTGCAATT | 0.986 |
| AGCCCGCGTT | 1.03 |
| AGATTTACAT | 1.02 |
| CACCTCTAGC | 1.15 |

| Sequence | switch fluorescence ratio |
| --- | --- |
| TCGAACCAGC | 1.06 |
| AGGCGAGATT | 0.965 |
| GCTTCTTCGC | 1.09 |
| TAAGGTTTCT | 1.03 |
| GCACTCTAGT | 1 |
| TTACGTTCCG | 1.02 |
| TAGACAGACA | 1.05 |
| ACGCGATCTT | 1.07 |
| CGCTCCTGGT | 1.01 |
| TTGACCTAAG | 0.969 |
| ATGAGCCATC | 1.01 |
| ACCTGCACCA | 1.29 |
| TTGCTTGCTT | 0.977 |
| ACACCGTAGA | 1.04 |
| CTCAGTCGTG | 1.01 |
| CAACCCAGCC | 1.12 |
| ACCTCGGCAG | 2.08 |
| AGTTAAAAGG | 1.06 |
| CGATCTCGCG | 1.02 |
| TTGAGAGCT | 1.02 |
| CCGCTGGACA | 2.07 |
| GGAACTAACA | 1.08 |
| ACCTGTTACG | 1.16 |
| CGCTTTAGAA | 1.01 |
| AGGCGTATCC | 0.993 |
| TAGGTACCGA | 1.02 |

| Sequence | switch fluorescence ratio |
| --- | --- |
| TATCTCGGCG | 0.996 |
| TGGGTCCCGA | 1.01 |
| ATTCGTTGGT | 0.98 |
| TGCCTTCAAC | 1.09 |
| GACTTCGGAC | 1.21 |
| GGTGCAGGTT | 0.975 |
| CATAGAACCC | 0.977 |
| GGGGGTCCA | 0.968 |
| CACGGCGGGT | 1.02 |
| GAAAGTAACG | 1.03 |
| AGGGTAAGAA | 1.1 |
| TGGGTACAAA | 1.04 |
| GGATTCCT | 1.04 |
| TCCGTGACC | 1.34 |
| TGACGATGG | 0.936 |
| GAGTCATGG | 0.989 |
| CGACACGTAG | 1.03 |
| GCGTACCTGC | 0.945 |
| TCTCATGCTG | 0.977 |
| CGTAACTTGC | 1.2 |
| ACGAGGTAAA | 1.02 |
| ACGATTGCCG | 1.62 |
| TTACTCTCCT | 1.14 |
| TATGTTAAT | 1 |
| ATGGGGTTGC | 0.998 |
| GCAATGTTAA | 1.05 |

| Sequence | switch fluorescence ratio |
| --- | --- |
| TGGAAGATGA | 0.958 |
| TGGCTGTATA | 0.964 |
| AAAGCGCGAA | 1.02 |
| GTCACCGACC | 1.11 |
| GTGAAGGAAG | 1 |
| CTCAAGGAGT | 1.13 |
| ACCTTGGATC | 0.98 |
| CTTCGTCTTT | 1.04 |
| CGGGAGGACA | 1.01 |
| AAGACTGTTG | 0.955 |
| CGGGGAGCGC | 0.951 |
| CCCTCCATCT | 1.1 |
| CTGGAGGGTA | 0.999 |
| CGGCGGGATC | 1.11 |
| AATGTATAGG | 0.977 |
| AATTTGCCGG | 0.967 |
| TTCGATCCTA | 1.01 |
| ACGTGGATCC | 0.997 |
| TTATGAGCCG | 0.957 |
| GTGTCCTGAC | 1.06 |
| CTTCATTAGT | 0.984 |
| AGGTGAAGCT | 1.07 |
| CTGATTCACT | 0.972 |
| AAAGGCGGTT | 0.973 |
| TCCAGACCG | 1.06 |
| TATTTGAGGC | 0.989 |

| Sequence | switch fluorescence ratio |
| --- | --- |
| TGATGAGCTG | 1.07 |
| CTTATGATT | 1.03 |
| CAGAGAGTGC | 0.999 |
| TCTGTTGGGT | 1 |
| GACAGCATAT | 1.89 |
| ATCTACAGCA | 1.09 |
| GCCTCCCACT | 1.64 |
| AATCTGATAA | 1 |
| GAGGTGGTTT | 1 |
| TTAACCCGCT | 1 |
| CGGCGAAAGT | 1.01 |
| CTGACGAGTG | 1.05 |
| GATTTAATGT | 0.976 |
| TCTCACCTTA | 1.08 |
| GGGTGTGAAG | 1.03 |
| TCACGATGAT | 1.05 |
| TTCCAAGAGC | 1.04 |
| ATTTCTGGCT | 0.917 |
| AACGTCCCAG | 1.08 |
| AGAGACTAAC | 1.02 |
| ATGAGGGTGT | 1.11 |
| GCATTTTGTC | 1 |
| GGTTGGAGGA | 1.03 |
| AAGGTTTATG | 0.979 |
| AGACCAAGAA | 1.01 |
| CGGAGTAGT | 1.23 |

| Sequence | switch fluorescence ratio |
| --- | --- |
| AAGGGTACAG | 1.06 |
| ACTCAGTAAA | 1.08 |
| AATCTACGGC | 1.1 |
| GCGGGTGTGG | 1.08 |
| GTGGGCAACG | 0.999 |
| ATAATAT | 1.04 |
| TGTGAAAAAA | 1.03 |
| TTTCGCATTA | 1.69 |
| ACGTATTTAC | 1.33 |
| TACGCCGTTT | 0.985 |
| AAACACAACA | 1.04 |
| GGTAAGGTGT | 1.25 |
| GAAGGGCTAA | 0.978 |
| GGAATATTTG | 1 |
| TACATAGCAT | 1.23 |
| GGACCTCAC | 1.2 |
| ATACCATGAA | 0.955 |
| AGGGCTACCT | 1.03 |
| TAAAGCCTCT | 1.03 |
| CGCCTGCGGA | 1.03 |
| AAGGGTTTG | 0.984 |
| CAGTTAGGCG | 0.978 |
| CGGATACATT | 1.02 |
| ATGCCGGTGA | 0.998 |
| GATACAACAG | 1.22 |
| ACGTCTTTAA | 0.974 |

| Sequence | switch fluorescence ratio |
| --- | --- |
| CACGTTGTCC | 1.01 |
| GAACGTCGGG | 0.953 |
| TACATCCTTG | 1.01 |
| GAAGCATGTG | 0.997 |
| ATGTTTAAGG | 0.943 |
| CGAGCTGACA | 1.05 |
| TTAACGGATT | 1.02 |
| TCTGTGGTCC | 0.942 |
| AACTTCATTA | 0.996 |
| ACTCTATATA | 1.08 |
| TATTCAGCTT | 1 |
| GCGCGTATGG | 1.01 |
| CCTAAAGGTA | 1.02 |
| GGCGAGTGTG | 1.02 |
| ACATTCAGGA | 1.01 |
| CGTTGCAGAG | 0.986 |
| GAGATCGATG | 0.954 |
| TGCCGCGTTA | 1.09 |
| GGTCCCATAC | 1.45 |
| GAAACAGTCC | 1.59 |
| ACATGTGTGA | 1.03 |
| TAGTCGACCC | 1.04 |
| AAAGTTGGCA | 0.982 |
| ATCGCATTTG | 1 |
| GCTACGGCAA | 1.25 |
| CGACTCTAA | 1.1 |

| Sequence | switch fluorescence ratio |
| --- | --- |
| CGGCGCAAGT | 3.92 |
| ATGGTCATAC | 1.07 |
| CATTGTGGAG | 0.991 |
| GGGGTCGCCC | 1.02 |
| TTATCCGACG | 1.37 |
| CAGACTCGTT | 1.03 |
| GAGAGCTCT | 1.05 |
| GTCCCATACT | 1.28 |
| CGTTGATAA | 1.02 |
| AAGAGGATAA | 0.987 |
| CGCATTAAGT | 1.11 |
| CCGGCCAGGC | 1.19 |
| TCAAGAATTC | 0.978 |
| GGCTTGCGAA | 1.02 |
| ATCAACCAGC | 0.992 |
| TGATATCTCG | 1 |
| TATAAATTA | 0.974 |
| GTATAGTCG | 1.03 |
| TAGAGCCAGC | 1.02 |
